Source: PubChem BioAssay (NCATS)
Where “and” joins values, the source holds several entries; their conditions need not be identical. Identical values can stand only once. The inconclusive results got no clear call from the source; some entries with a clear call stand among them for comparison. Where the call is inconclusive, the potency comes from a doubtful curve fit. Calls of active or inactive are those of the source. Calls come from the whole dose curve; as a rule, active = well fitted cell-killing curve with a large enough effect; inconclusive = small, poorly fitted or top-dose-only effect; inactive = no such curve, though single readings can be large or run the other way.

Test: qHTS of pediatric cancer cell lines to identify multiple opportunities for drug repurposing: Primary screen for Rh30 cells (AID 1347107); note: nearly all actives have a fitted effect of over 75% in size
Conditions: Rh30 rhabdomyosarcoma viability, CellTiter-Glo luminescence, 48 h; series mostly up to 46 µM; activity change, negative = cytotoxic: at the top concentration
Description: Drug repurposing or repositioning has been offered as a strategy for drug development in oncology programs. This approach has special potential for childhood cancers and other rare or orphan diseases, where the expected return on new drug development has been a disincentive to pharmaceuticals.
In this project we exploit the poly-pharmacology of drugs to discover new indications via phenotypic screening of a panel of 19 well-characterized cell lines derived from solid tumors seen in children and adolescents. The goal is to identify approved drugs with previously unrecognized anticancer properties that has the potential to reveal new mechanisms and biological processes involved in carcinogenesis or drug resistance. We employed a titration-based paradigm (quantitative high-throughput screening or qHTS), where all compounds were tested at multiple concentrations for their effect on cell viability. Concentration-response curves (CRCs) were derived directly from the primary screen, and both potency and efficacy values were used to identify compounds with robust bioactivity profiles. We screened the NIH Chemical Genomics Center (NCGC) Pharmaceutical Collection (NPC) and Mechanism Interrogation Plate (MIPE) small molecule collections of approved and investigational compounds against these cell lines; and measured metabolically active cells after 48 hours of compound treatment as a proxy for cell viability.
Assay Submitter: Nathalia J. Martinez, National Center for Advancing Translational Sciences, National Institutes of Health, Rockville, MD, USA; email: natalia.martinez@nih.gov
[1] Shen, M et al. Quantitative high-throughput phenotypic screening of pediatric cancer cell lines identifies multiple opportunities for drug repurposing. Oncotarget 2017 Dec 19;9(4):4758-4772. PMID 29435139.
The cells were obtained from University of North Carolina (UNC), Pediatric Preclinical Testing Program (PPT), and Coriell Institute (CI).
qHTS cell viability assay:
Cells were assayed in growth media at a density of 500-1,000 cells/well. Five microliters of cells were dispensed into 1,536-well, white, solid-bottom, TC-treated plates (Greiner Bio One) using a multidrop dispenser and incubated at 37 degrees C, 5% CO2, under a humidified atmosphere for 5 hours. Twenty-three nanoliters of compounds and controls (neutral control DMSO or positive control bortezomib at final concentration of 2.3 µM) were subsequently transferred by Kalypsys pintool. For primary screens, the MIPE collection was tested at 11-point dilutions (final concentrations range from 0.78 nM to 46 µM) and the NPC collection at 8-point dilutions (final concentrations range from 0.59 nM to 46 µM). Compounds tested in follow-up screens were assayed at 11-point dilutions. Cells were incubated for 48 hours, followed by addition of 3 µL of CellTiter-Glo (Promega). After a 15 min incubation at room temperature, samples were analyzed for luminescence intensity using a ViewLux High-throughput CCD imager equipped with clear filters.
% is set by controls: 0 for no effect and ±100 for the full control effect; potency is the fitted concentration of half-maximal effect; tags give direction and shape of the fitted curve.

Row | SMILES | Potency | activity change, negative = cytotoxic
1 | OCCN1CCN(CCCN2c3ccccc3Sc3ccc(Cl)cc32)CC1 | inconclusive: 29.9 µM [cytotoxic, single point] | 
2 | COc1ccc(-c2oc3c(CC=C(C)C)c(O)cc(O)c3c(=O)c2O)cc1 | inconclusive: 18.7 µM [cytotoxic, partial curve] | 
3 | COc1ccc(-c2ccc3c(N4CCOCC4)nc(N4C[C@@H](C)O[C@@H](C)C4)nc3n2)cc1CO |  | inactive: -25.3%
4 | CC[C@]1(O)C[C@@H]2CN(CCc3c([nH]c4ccccc34)[C@@](C(=O)OC)(c3cc4c(cc3OC)N(C)[C@H]3[C@@](O)(C(=O)OC)[C@H](OC(C)=O)[C@]5(CC)C=CCN6CC[C@]43[C@@H]65)C2)C1 | inactive | 
5 | Cc1ccc(NC(=O)Nc2cc(C(F)(F)F)ccc2F)cc1Nc1ccc2c(c1)NC(=O)C2=Cc1ccc[nH]1 | inconclusive: 14.8 µM [cytotoxic, partial curve] | 
6 | CC(C)CN(C[C@@H](O)[C@H](Cc1ccccc1)NC(=O)O[C@H]1CO[C@H]2OCC[C@H]21)S(=O)(=O)c1ccc(N)cc1 | inconclusive: 3.32 µM [cytotoxic, full curve] | 
7 | Cc1cc([C@@H](C)Nc2ccccc2C(=O)O)c2nc(N3CCOCC3)cc(=O)n2c1 | inconclusive: 10.8 µM [cytotoxic, partial curve] | 
8 | CCCCCCCCCCCCCCCC[N+](C)(C)CC | inconclusive: 18.8 µM [cytotoxic, partial curve] | 
9 | Clc1cccc(-c2nnnn2Cc2cccnc2)c1Cl |  | inactive: 6.95%
10 | CCc1cc2c(cc1N1CCC(N3CCOCC3)CC1)C(C)(C)c1[nH]c3cc(C#N)ccc3c1C2=O | inconclusive: 14.8 µM [cytotoxic, partial curve, poor fit] | 
11 | NC(=O)Nc1cc(-c2ccc(CN3CCOCC3)cc2)sc1C(N)=O | inconclusive: 4.69 µM [cytotoxic, partial curve] | 
12 | COc1ccc(CCC(=O)Nc2nc3ccc(Cl)cc3s2)cc1OC | inconclusive: 16.6 µM [cytotoxic, partial curve] | 
13 | OC1CCC(Nc2ncc3nc(Nc4c(F)cc(F)cc4F)n([C@@H]4CCOC4)c3n2)CC1 (stereo not given in full) | inconclusive: 26.4 µM [cytotoxic, single point] | 
14 | N#Cc1c(O)c2c(-c3ccc(-c4ccccc4O)cc3)csc2[nH]c1=O | inconclusive: 5.26 µM [cytotoxic, partial curve, poor fit] | 
15 | COc1cc(/C=C/C(=O)O[C@H]2CC[C@]34C[C@]35CC[C@]3(C)[C@@H]([C@H](C)CCC=C(C)C)CC[C@@]3(C)[C@@H]5CC[C@H]4C2(C)C)ccc1O |  | inactive: 13.2%
16 | CNC(=O)c1ccc(N2C(=S)N(c3cnc(C#N)c(C(F)(F)F)c3)C(=O)C23CCC3)cc1F | active: 1.66 µM | 
17 | CC(=O)Oc1cccc(C)c1 |  | inactive: 21.3%
18 | CCCCCCCCCCCCCCCC[n+]1ccccc1 | inconclusive: 18.8 µM [cytotoxic, partial curve] | 
19 | CN1CCCN(C(c2ccccc2)c2ccc(Cl)cc2)CC1 (stereo not given) |  | inactive: 9.92%
20 | NC[C@H]1O[C@H](O[C@H]2[C@H](O[C@@H]3O[C@H](CO)[C@@H](O)[C@H]3O)C(O)[C@H](N)C[C@@H]2N)[C@H](N)[C@@H](O)[C@@H]1O (stereo not given in full) |  | inactive: 23.6% [at 9.22 µM]

Row | SMILES | Potency | activity change, negative = cytotoxic
21 | CC(C)C[C@H](NC(=O)[C@H](Cc1ccccc1)NC(=O)c1cnccn1)B(O)O | active: 0.0935 µM | 
22 | CCC(=O)c1ccc2c(c1)N(CCCN(C)C)c1ccccc1S2 |  | inactive: 20.5%
23 | CC(C)(C)NC(=O)[C@H]1CC[C@H]2[C@@H]3CC[C@H]4NC(=O)C=C[C@]4(C)[C@H]3CC[C@]12C | inconclusive: 5.9 µM [cytotoxic, partial curve] | 
24 | O=C1NC(=O)C(=Cc2ccc3nccc(-c4ccncc4)c3c2)S1 | active: 1.48 µM | 
25 | COc1cc2c(cc1OC)[C@@H]1CC(=O)[C@@H](CC(C)C)CN1CC2 |  | inactive: 22.7%
26 | CC(C=CC=C(C)C=CC1=C(C)CCCC1(C)C)=CC=CC=C(C)C=CC=C(C)C=CC1=C(C)CCCC1(C)C | inconclusive: 18.7 µM [cytotoxic, partial curve] | 
27 | CC#C[C@]1(O)CC[C@H]2[C@@H]3CCC4=CC(=O)CCC4=C3[C@@H](c3ccc(N(C)C)cc3)C[C@@]21C | inconclusive: 16.8 µM [cytotoxic, partial curve, poor fit] | 
28 | CC[C@@H]1C(=O)N(C)c2cnc(Nc3ccc(C(=O)NC4CCN(C)CC4)cc3OC)nc2N1C1CCCC1 | inconclusive: 14.8 µM [cytotoxic, partial curve] | 
29 | CCn1c(-c2nonc2N)nc2cncc(CNC3CCNCC3)c21 | inconclusive: 8.33 µM [cytotoxic, partial curve] | 
30 | COc1cc(C=CC(=O)CC(=O)C=Cc2ccc(O)c(OC)c2)ccc1O | inconclusive: 38.2 µM [cytotoxic, partial curve] | 
31 | O=C(CCCN1CCN(c2ccc(F)cc2)CC1)NC1c2ccccc2CSc2ccccc21 (stereo not given) | inconclusive: 5.9 µM [cytotoxic, partial curve] | 
32 | CC[C@@]1(O)C(=O)OCc2c1cc1n(c2=O)Cc2cc3c(CN(C)C)c(O)ccc3nc2-1 | inconclusive: 376 nM [cytotoxic, full curve] and inconclusive: 1.48 µM [cytotoxic, full curve] | 
33 | c1ccc(CNc2nc(NCc3ccccc3)c3ccccc3n2)cc1 | active: 23.5 µM | 
34 | CO[C@@]12[C@H](COC(N)=O)C3=C(C(=O)C(C)=C(N)C3=O)N1C[C@@H]1N[C@@H]12 | inconclusive: 6.68 µM [cytotoxic, partial curve] and inconclusive: 5.9 µM [cytotoxic, partial curve] | 
35 | Cc1nc2cnc3ccc(C#Cc4cccnc4)cc3c2n1-c1ccc(C(C)(C)C#N)cc1 | active: 0.469 µM | 
36 | O=C1N=C(O)CN1/N=C/c1ccc(-c2ccc([N+](=O)[O-])cc2)o1 |  | inactive: 32.6%
37 | O[C@@H](c1cc(C(F)(F)F)nc2c(C(F)(F)F)cccc12)[C@H]1CCCCN1 | inconclusive: 29.9 µM [cytotoxic, single point] | 
38 | CC(C)(C)CC(C)(C)c1ccc(OCCOCC[N+](C)(C)Cc2ccccc2)cc1 | inconclusive: 18.8 µM [cytotoxic, single point] | 
39 | C[C@]12C=CC(=O)C=C1[C@@H](F)C[C@@H]1[C@@H]2[C@@H](O)C[C@@]2(C)[C@H]1CC[C@]2(O)C(=O)CO |  | inactive: 22.2%
40 | O=S(=O)(O)c1ccc2cc(N=Nc3cc(S(=O)(=O)O)c4cccnc4c3O)ccc2c1 | inconclusive: 10.5 µM [cytotoxic, partial curve] | 
